The record followed here is paper PMC4336329 (PLoS ONE, 2015).

Each structure is given as a SMILES string. The campaign covered roughly 310,000 compounds. About 14,000 (4.5%) showed an effect of 50% or more. The effect is printed as a negative number. Some of the results follow.
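Further: peak tail current of the secondary pulse compared with the same well before compound.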

Chain of human ether-à-go-go-related gene (hERG) potassium channel (Q12809 whole entry, looked up): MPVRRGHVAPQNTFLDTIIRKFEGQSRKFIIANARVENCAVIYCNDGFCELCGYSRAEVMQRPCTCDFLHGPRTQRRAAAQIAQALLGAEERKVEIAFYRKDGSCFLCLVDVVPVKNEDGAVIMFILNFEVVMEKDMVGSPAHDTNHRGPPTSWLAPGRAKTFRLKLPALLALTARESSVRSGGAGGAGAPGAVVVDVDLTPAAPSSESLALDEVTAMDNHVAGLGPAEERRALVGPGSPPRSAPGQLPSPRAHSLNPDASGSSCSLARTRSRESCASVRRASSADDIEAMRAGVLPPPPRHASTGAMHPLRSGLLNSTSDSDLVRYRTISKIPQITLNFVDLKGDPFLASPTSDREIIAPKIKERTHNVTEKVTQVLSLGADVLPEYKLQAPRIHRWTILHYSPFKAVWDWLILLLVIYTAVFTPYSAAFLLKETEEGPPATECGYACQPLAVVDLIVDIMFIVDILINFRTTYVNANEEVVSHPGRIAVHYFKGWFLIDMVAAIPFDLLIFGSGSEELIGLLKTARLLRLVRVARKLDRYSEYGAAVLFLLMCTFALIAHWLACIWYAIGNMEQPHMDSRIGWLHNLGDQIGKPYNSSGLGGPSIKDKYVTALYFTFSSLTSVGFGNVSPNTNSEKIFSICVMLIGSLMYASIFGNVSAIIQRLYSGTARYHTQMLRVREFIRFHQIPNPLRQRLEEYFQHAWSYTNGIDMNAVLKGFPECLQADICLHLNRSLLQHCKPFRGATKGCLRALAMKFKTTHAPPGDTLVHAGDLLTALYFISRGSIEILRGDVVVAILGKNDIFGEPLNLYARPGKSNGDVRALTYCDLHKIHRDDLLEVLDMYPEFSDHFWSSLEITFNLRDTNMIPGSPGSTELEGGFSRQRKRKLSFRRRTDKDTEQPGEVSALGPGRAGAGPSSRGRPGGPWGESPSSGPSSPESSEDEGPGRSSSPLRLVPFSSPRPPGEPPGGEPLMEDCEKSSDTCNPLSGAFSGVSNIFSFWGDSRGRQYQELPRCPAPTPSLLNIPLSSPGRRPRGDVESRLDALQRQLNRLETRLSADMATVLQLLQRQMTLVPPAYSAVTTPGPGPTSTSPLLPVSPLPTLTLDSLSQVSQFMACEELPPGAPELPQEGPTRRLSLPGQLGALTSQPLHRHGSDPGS

This experiment addresses human ether-à-go-go-related gene (hERG) potassium channel (human, UniProt Q12809). In words: primary screen, population patch clamp on CHO cells stably expressing hERG.
In the case of `CCC1(C)Cc2nc(Cl)c(C#N)cc2CO1` (stereo not drawn), the “hERG current change (%, negative = inhibition) at 10uM” value is -2.38%.

Take `CC1CCCCN1C(=O)CNCc1ccc(F)cc1.O=C(O)C(=O)O` (stereo not drawn): the “hERG current change (%, negative = inhibition) at 10uM” value came to 4.38%.

With `F[B-](F)(F)F.OCC[NH+]=c1cc(-c2ccccc2)oc2ccc(Cl)cc12`, the “hERG current change (%, negative = inhibition) at 10uM” value was -71.3%.

For the compound `Cn1c(SCC(=O)N2CCN(c3ccccc3)CC2)nnc1-c1c[nH]c2ccccc12`, the “hERG current change (%, negative = inhibition) at 10uM” value was -50.5%.

Consider `COc1cccc(N2CC(C(=O)N3CCC4(CC3)CC(=O)c3ccccc3O4)CC2=O)c1` (stereo not drawn), for which the “hERG current change (%, negative = inhibition) at 10uM” value is -53.5%.

For `CN(CCOc1ccc(Cl)cc1)C(=O)c1cc(-c2ccco2)nc2ccccc12`, the “hERG current change (%, negative = inhibition) at 10uM” value is recorded as -33.7%.

Regarding `CCOC(=O)c1sc(NC(=O)c2ccc3ncsc3c2)nc1C`, the “hERG current change (%, negative = inhibition) at 10uM” value was determined as 10.8%.

Consider `Cc1cccc(NC(=S)NCCC(c2ccccc2)c2ccccc2)c1`, for which the “hERG current change (%, negative = inhibition) at 10uM” value is recorded as 12%.

As for `CCCCCC(=O)NNC(=S)NC(=O)c1ccccc1[N+](=O)[O-]`, the “hERG current change (%, negative = inhibition) at 10uM” value turned out to be 17.8%.

Consider `CC(C)c1ccc(NC(=S)NCc2cccs2)cc1`, for which the “hERG current change (%, negative = inhibition) at 10uM” value was -18.7%.

On to `CC(=O)N1CCc2cc(C(=O)CN3CCC(C)CC3)ccc21`, for which the “hERG current change (%, negative = inhibition) at 10uM” value is reported as -1.35%.

With `c1ccc(Oc2nc(NCc3ccco3)nc(NCc3ccco3)n2)cc1`, the “hERG current change (%, negative = inhibition) at 10uM” value is given as -2.28%.

Consider `CCOC(=O)N1CCC(NC(=O)c2cc3c(-c4cccc(OC)c4)nn(C)c3s2)CC1`, for which the “hERG current change (%, negative = inhibition) at 10uM” value was -9.54%.

As for `COc1cccc2cc(C(=O)Nc3ccccc3Cl)/c(=N/NS(=O)(=O)c3ccccc3)oc12`, the “hERG current change (%, negative = inhibition) at 10uM” value worked out at 21.2%.

As to `Cc1ccc2c(C)c(C(=O)N3CCN(c4cnccn4)CC3)oc2c1C`, the “hERG current change (%, negative = inhibition) at 10uM” value was -24.5%.

For `N#CCC(=O)N/N=C/c1cn(Cc2ccc(Cl)cc2Cl)c2ccccc12`, the “hERG current change (%, negative = inhibition) at 10uM” value came out at 11.9%.

As to `CCCN1CCC(N(C)CCc2ccc(OC)c(OC)c2)CC1`, the “hERG current change (%, negative = inhibition) at 10uM” value is -11.4%.

Consider `O=C(CCCN1C(=O)c2cccc3cccc(c23)C1=O)NCc1ccco1`, for which the “hERG current change (%, negative = inhibition) at 10uM” value is 23%.

Turning to `N#CC1=C(N)Oc2c(c(=O)sc3ccccc23)C1c1ccncc1` (stereo not drawn), the “hERG current change (%, negative = inhibition) at 10uM” value is recorded as 17.2%.

In the case of `O=C(CN(Cc1ccco1)C(=O)c1ccccc1)Nc1ccc(Cl)c(Cl)c1`, the “hERG current change (%, negative = inhibition) at 10uM” value was -1.85%.

As to `CC(Sc1nnc2ccccn12)C(=O)Nc1ccc2c(c1)OCCO2` (stereo not drawn), the “hERG current change (%, negative = inhibition) at 10uM” value came to 16.7%.

With `C=CCC1(CC=C)CCCN1Cc1nc(COc2ccccc2)no1`, the “hERG current change (%, negative = inhibition) at 10uM” value is listed as -11.5%.

On to `COC(=O)[C@@]12CCCN1[C@H](c1ccc(-c3ccc(C(C)=O)cc3)c(OC)c1)[C@H]1C(=O)N(C)C(=O)[C@H]12.O=C(O)C(F)(F)F`, for which the “hERG current change (%, negative = inhibition) at 10uM” value was -19.9%.

Turning to `Cc1ccc(NC(=S)NCc2ccco2)c(C)c1`, the “hERG current change (%, negative = inhibition) at 10uM” value is recorded as 1.56%.

Take `Cc1ccc(NC(=O)c2cc(-c3cccs3)on2)cc1`: the “hERG current change (%, negative = inhibition) at 10uM” value was determined as 15.4%.

For the compound `Cc1cccc(-n2c(CNC(=O)c3ccc(S(=O)(=O)N4CCCCC4)cc3)n[nH]c2=S)c1`, the “hERG current change (%, negative = inhibition) at 10uM” value was found to be 15%.

With `S=c1[nH]nc(-c2cccs2)n1/N=C/c1c(Cl)cccc1Cl`, the “hERG current change (%, negative = inhibition) at 10uM” value is 24.1%.

On to `O=C(CSc1nnc(Nc2ccccc2F)s1)NC1CCCC1`, for which the “hERG current change (%, negative = inhibition) at 10uM” value stood at 0.718%.

For `O=C(CNc1ccccc1)N/N=C/c1ccc2c(c1)OCCO2`, the “hERG current change (%, negative = inhibition) at 10uM” value is given as -1.82%.

Regarding `Cc1ccc(NC(=S)N2CCN(Cc3ccc4c(c3)OCO4)CC2)c(C)c1`, the “hERG current change (%, negative = inhibition) at 10uM” value is on record as -1.01%.

For the compound `Cc1ccc(-c2c(C(=O)N/N=C/c3ccco3)nnn2-c2nonc2N)cc1`, the “hERG current change (%, negative = inhibition) at 10uM” value is given as 11.2%.

For the compound `CC12CCC(C(=O)N(CCC#N)CCC#N)(CC1=O)C2(C)C` (stereo not drawn), the “hERG current change (%, negative = inhibition) at 10uM” value is 7.57%.

For `O=C(Nc1cccc(Cl)c1)C1CCCN(S(=O)(=O)c2cnc[nH]2)C1` (stereo not drawn), the “hERG current change (%, negative = inhibition) at 10uM” value is listed as -0.341%.

`COc1ccc(N(CC(=O)NCc2ccccc2OC)S(=O)(=O)c2c(C)nn(C)c2C)cc1`: the “hERG current change (%, negative = inhibition) at 10uM” value is on record as -10.6%.

Regarding `CCOc1ccc2nc(SCC(=O)c3ccccc3)sc2c1`, the “hERG current change (%, negative = inhibition) at 10uM” value is reported as 8.84%.

Consider `O=C(NCCCCc1ccccc1)C1CC(c2ccccc2C(F)(F)F)=NO1` (stereo not drawn), for which the “hERG current change (%, negative = inhibition) at 10uM” value is recorded as -4.51%.

Take `CC(C)c1ccc(NC(=S)NN2CCOCC2)cc1`: the “hERG current change (%, negative = inhibition) at 10uM” value stood at 12.3%.

As to `CCNC(=S)N/N=C1\CCCCc2ccccc21`, the “hERG current change (%, negative = inhibition) at 10uM” value is -3.93%.

With `COc1cccc2[nH]c3c(=O)[nH]cnc3c12`, the “hERG current change (%, negative = inhibition) at 10uM” value was 18.9%.

As for `Cc1cc(C)c(N=Cc2c(O)[nH]c(=O)[nH]c2=O)c(C)c1`, the “hERG current change (%, negative = inhibition) at 10uM” value is 11.6%.

For the compound `COC(=O)CCC(=O)NC(=S)Nc1ccccc1F`, the “hERG current change (%, negative = inhibition) at 10uM” value came to 0.396%.

As for `O=C(NCc1cccs1)c1ccc([N+](=O)[O-])cc1Cl`, the “hERG current change (%, negative = inhibition) at 10uM” value is given as -27.9%.

Regarding `CC(C)(C)NC(=O)Cn1c(=O)oc2ccc(Cl)cc21`, the “hERG current change (%, negative = inhibition) at 10uM” value is 6.54%.

Take `COc1ccc(C(=O)OC2CCN(C)CC2)cc1.Cl`: the “hERG current change (%, negative = inhibition) at 10uM” value is -11.8%.

As for `COc1ccc(C(=O)NCC2(N3CCCCC3)CCCCC2)cc1S(=O)(=O)N(C)C`, the “hERG current change (%, negative = inhibition) at 10uM” value was -7.09%.
